# The supplement of paper PMC4604168 (melanoma cell lines)
# Some of the results follow. Single values are uncertain, as repeats are few or missing.
# Key:
# Assay in all cases: cell count relative to DMSO control; melanoma cells; higher = more viable cells
# Conditions in all cases: library dose: standard library concentration; 72 h
# [1] = system: G361
# [2] = system: IPC-298
# [3] = system: IST-MEL1
# [4] = system: LB2518-MEL
# [5] = system: LOXIMVI
# [6] = system: MEL-HO
# [7] = system: MZ2-MEL
# [8] = system: MeWo
# [9] = system: RPMI7951
# [10] = system: RVH-421
# [11] = system: SkMel28
# [12] = system: SkMel2
# [13] = system: SkMel30
# [14] = system: SkMel5
# [15] = system: UACC257
# [16] = system: UACC62
# [17] = system: WM115
# [18] = system: WM1716
# [19] = system: WM1745
# [20] = system: WM3526
# 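Note: cells treated in 1,536-well plates, then fixed and DAPI-stained, with nuclei counted from automated high-throughput microscope images.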
Structure (SMILES),cell count [1] [%],cell count [2] [%],cell count [3] [%],cell count [4] [%],cell count [5] [%],cell count [6] [%],cell count [7] [%],cell count [8] [%],cell count [9] [%],cell count [10] [%],cell count [11] [%],cell count [12] [%],cell count [13] [%],cell count [14] [%],cell count [15] [%],cell count [16] [%],cell count [17] [%],cell count [18] [%],cell count [19] [%],cell count [20] [%]
"NC(=O)c1ccc(N(C(N)=O)c2c(F)cccc2F)nc1-c1ccc(F)cc1F + COc1ccc(C2=N[C@@H](c3ccc(Cl)cc3)[C@@H](c3ccc(Cl)cc3)N2C(=O)N2CCNC(=O)C2)c(OC(C)C)c1 [Nutlin-3] (first compound 2 µM, partner dose 0.5 µM)",77.8,102,116,68.5,64.9,96.1,102,90.6,86.3,73.3,42,90.3,89.5,76.7,85.8,66.1,85.2,85,88.6,87.6
"CC(C)(C)c1cnc(CSc2cnc(NC(=O)C3CCNCC3)s2)o1 + CCN(CC)CCCCNc1ncc2cc(-c3cc(OC)cc(OC)c3)c(NC(=O)NC(C)(C)C)nc2n1 [PD173074] (first compound 0.05 µM, partner dose 0.5 µM)",100,95.9,99.3,68.5,50.3,88,65.2,85.8,16.6,66.6,42.8,60.7,109,51.5,80.9,71.7,73.2,70.2,82.7,86.6
"CC(C)(C)c1cnc(CSc2cnc(NC(=O)C3CCNCC3)s2)o1 + N#Cc1c(O)c2c(-c3ccc(-c4ccccc4O)cc3)csc2[nH]c1=O [A769662] (first compound 0.05 µM, partner dose 10 µM)",106,117,96.3,79.7,88,92.6,93.7,99.4,55.5,84.7,98.9,92.3,120,78,108,75.1,107,92.7,96.7,107
"COc1cc2c(Oc3ccc4[nH]c(C)cc4c3F)ncnc2cc1OCCCN1CCCC1 [cediranib] + O=C(Nc1ccccc1)c1cc([N+](=O)[O-])ccc1Cl [GW9662] (first compound 2 µM, partner dose 10 µM)",80.9,100,114,85.9,73.8,94.9,83.6,66.3,83.3,63,73.1,87.3,89,79.2,66.4,88.3,70.6,111,72,102
"CCCCCCCCc1ccc(CCC(N)(CO)CO)cc1 [fingolimod] + NC(=O)Nc1cc(-c2cccc(F)c2)sc1C(=O)N[C@H]1CCCNC1 [AZD7762] (first compound 10 µM, partner dose 0.1 µM)",0.536,47.5,3.49,0.198,0.455,1.71,1.7,5.67,0.919,4.21,2.3,0.0911,11.3,56.4,55.8,14.5,6.21,10.1,12.7,10.9
"NC(=O)c1ccc(N(C(N)=O)c2c(F)cccc2F)nc1-c1ccc(F)cc1F + COc1cc2c(Oc3ccc4[nH]c(C)cc4c3F)ncnc2cc1OCCCN1CCCC1 [cediranib] (first compound 2 µM, partner dose 2 µM)",96.7,107,79.1,107,83.5,91.5,107,87.1,78.1,92.7,117,100,115,76.7,95.1,73.5,116,119,70.3,92.7
"CN(NC(=O)CC(=O)NN(C)C(=S)c1ccccc1)C(=S)c1ccccc1 + COc1ccc(-c2ccc3c(N4CCOCC4)nc(N4C[C@@H](C)O[C@@H](C)C4)nc3n2)cc1CO [KU0063794] (first compound 0.03 µM, partner dose 0.1 µM)",43,56.9,65.1,26.2,73.2,68.4,80.4,21.5,89.9,68.8,32.3,67.8,80.9,59.5,88.2,62.5,30.7,81.2,24.5,68.4
"CCCCCCCCc1ccc(CCC(N)(CO)CO)cc1 [fingolimod] + C=CCNC1=C2C[C@@H](C)C[C@H](OC)[C@H](O)[C@@H](C)/C=C(\C)[C@H](OC(N)=O)[C@@H](OC)/C=C\C=C(/C)C(=O)NC(=CC1=O)C2=O [Tanespimycin] (first compound 10 µM, partner dose 0.01 µM)",0.513,44.3,10.7,0.523,21.4,4.29,1.28,22.5,1.66,37.3,0.478,0.537,8.45,46.8,70.8,23.9,17.5,53.6,7.28,44.5
"Cc1ccc(NC(=O)c2cccc(N(C)C)c2)cc1NC(=O)c1ccc(O)cc1 + OCCn1cc(-c2cnc3nnn(Cc4ccc5ncccc5c4)c3n2)cn1 [PF04217903] (first compound 10 µM, partner dose 5 µM)",96.7,105,89.1,111,120,100,114,101,103,134,89,100,105,97.9,92.9,87.3,94,116,111,87.2
"NC(=O)c1ccc(N(C(N)=O)c2c(F)cccc2F)nc1-c1ccc(F)cc1F + OCc1c[nH]c2ccccc12 [Indole-3-carbinol] (first compound 2 µM, partner dose 4 µM)",90.1,108,99.3,92.2,115,95.1,109,106,91.4,117,72.6,95.5,78.3,77.1,111,67.5,103,111,87.1,92.8
"CN(NC(=O)CC(=O)NN(C)C(=S)c1ccccc1)C(=S)c1ccccc1 + CCCCCCCCCCCC1=C(O)C(=O)C=C(O)C1=O [Embelin] (first compound 0.03 µM, partner dose 6 µM)",20.6,38.9,30.3,15.5,89.5,62.8,90.3,17.9,78.4,41.4,24.2,53.3,78.9,55,82.7,55.4,32.9,72,16,91
"NC(=O)c1ccc(N(C(N)=O)c2c(F)cccc2F)nc1-c1ccc(F)cc1F + C[C@@H]1CCN(C(=O)CC#N)C[C@@H]1N(C)c1ncnc2[nH]ccc12 [CP690550] (first compound 2 µM, partner dose 5 µM)",101,118,93.2,111,114,107,110,89.5,104,127,99.6,110,103,106,90.8,81.1,92.2,117,140,93.5
"CCCCCCCCc1ccc(CCC(N)(CO)CO)cc1 [fingolimod] + C[C@]1(c2nc3c(C(N)=O)cccc3[nH]2)CCCN1 [Veliparib] (first compound 10 µM, partner dose 7 µM)",1.47,68.3,37.4,0.231,22.7,10.2,8.09,42.6,1.69,33.9,5.69,0.361,15.3,74.8,79.7,18.1,13.6,59.3,21,63.8
"NC(=O)c1ccc(N(C(N)=O)c2c(F)cccc2F)nc1-c1ccc(F)cc1F + NCC(=O)Nc1ccc(-n2nc(C(F)(F)F)cc2-c2ccc3c(ccc4ccccc43)c2)cc1 [OSU03012] (first compound 2 µM, partner dose 5 µM)",81,65.4,85.7,82.7,90.4,87.3,109,79.1,103,88.8,21.8,45.5,31.7,55.4,74.4,62.2,75.4,93.9,67.3,57.4
"COc1cc2c(Oc3ccc4[nH]c(C)cc4c3F)ncnc2cc1OCCCN1CCCC1 [cediranib] + COc1cc2ncnc(Nc3ccc(Oc4ccccc4)cc3)c2cc1OC [SrcI1] (first compound 2 µM, partner dose 10 µM)",31.8,73,85.3,93.9,46.3,81.9,62.5,63.7,10.5,84.8,66.5,69.9,70.9,63.4,94,62.3,61.4,67.6,45.8,56
"Cc1ccc(NC(=O)c2cccc(N(C)C)c2)cc1NC(=O)c1ccc(O)cc1 + C[C@@H]1CCN(C(=O)CC#N)C[C@@H]1N(C)c1ncnc2[nH]ccc12 [CP690550] (first compound 10 µM, partner dose 5 µM)",90.9,101,82.5,109,123,99.7,109,87.6,67.6,99.5,66.4,85.9,118,86.1,94.6,121,96.8,102,71.9,85.1
"CC(C)(C)c1cnc(CSc2cnc(NC(=O)C3CCNCC3)s2)o1 + Cn1cc(/C=C2\C(=O)Nc3cccnc32)c2ccccc21 [GW441756] (first compound 0.05 µM, partner dose 2 µM)",96.6,91.3,106,67.1,97.6,107,73.8,88.8,42.4,83.4,51.2,69.7,68.2,40.1,90.4,51.5,75.7,80.1,49.5,97.7
"CC(C)(C)c1cnc(CSc2cnc(NC(=O)C3CCNCC3)s2)o1 + COc1cc2c(Oc3ccc4[nH]c(C)cc4c3F)ncnc2cc1OCCCN1CCCC1 [cediranib] (first compound 0.05 µM, partner dose 2 µM)",108,118,89.1,88.9,53.7,99.6,89.2,74.8,9.06,66.6,56.7,70.3,88.7,68.8,87,48.8,59.6,72.5,57.7,84.1
